# Test results from PubChem BioAssay AID624296 (National Center for Advancing Translational Sciences (NCATS), 2012).
# Among all 350,000 compounds or so, about 9,900 (2.8%) were called active. The inconclusive results got no clear call from the source; some entries with a clear call stand among them for comparison. The call rests on the fitted dose curve; in most records, active means well fitted activation curve with a large enough effect; inconclusive means small, poorly fitted or top-dose-only effect; inactive means no such curve, though single readings can be large or run the other way. Potencies of inconclusive entries are left out as doubtful fits.
# Test: A quantitative high throughput screen for small molecules that induce DNA re-replication in MCF 10a normal breast cells. Further: nearly all actives have a fitted effect of over 50% in size. On activity, positive = re-replication: % of control where 0% means no effect.
# Conditions: MCF 10A DNA re-replication, Hoechst nuclear intensity, 48 h; activity, positive = re-replication: at 46.1 µM (top of the series)
# Potency means the concentration at half of the fitted maximal effect; tags describe the fitted curve by direction and shape.
SMILES,Potency,"activity, positive = re-replication"
CSc1ccc(S(=O)(=O)N2CCC(C(=O)NCC3CCCO3)CC2)cc1 (centres undefined),"inconclusive [activator, partial curve, poor fit]",–
Cc1ccc2cc(NC(=O)c3ccc(C(C)(C)C)cc3)ccc2n1,"inconclusive [activator, single point]",–
O=C(CSc1nc(-c2ccccc2Cl)ns1)Nc1ccc2c(c1)OCO2,"inconclusive [activator, single point]",–
COC(=O)c1cc2sc(Cl)cc2n1CC(=O)Nc1ccc(OC)c(OC)c1OC,active: 25.9 µM,–
COC(=O)CN(C#N)c1nc(NC(C)C)nc(OC)n1,–,inactive: 0.705%
CCOc1ccc(C2C(C(=O)c3cccs3)=C(O)C(=O)N2CCN2CCOCC2)cc1 (centres undefined),–,inactive: -1.34%
CC1CCN(C(=S)c2ccc(-c3ccc(Cl)cc3Cl)o2)CC1,"inconclusive [activator, single point]",–
Cc1csc(SCC(=O)NCc2ccccc2)n1,–,inactive: -28.4%
NC(=O)c1cc(-c2cccnc2)nc2ccc(Br)cc12,–,inactive: -0.473%
O=c1[nH]ncc(N/N=C\c2ccc(O)cc2O)c1Cl,"inconclusive [activator, partial curve]",–
O=C(NNC(=O)c1cccc2ccccc12)c1ccc(-c2ccccc2)cc1,"inconclusive [activator, single point]",–
CCC(Oc1ccc(C)cc1)C(=O)Nc1ccccc1C(=O)N1CCOCC1 (centres undefined),–,inactive: -7.68%
CCOC(=O)CSC1=C(C#N)C(c2ccc(C)o2)CC(=O)N1 (centres undefined),"inconclusive [activator, full curve, poor fit]",–
COc1cccc(C2c3c(oc4ccccc4c3=O)C(=O)N2CCCN2CCOCC2)c1 (centres undefined),"inconclusive [activator, full curve]",–
CCOC(=O)CNC(=O)c1cc(-c2ccccn2)nc2c(C)c(Cl)ccc12,"inconclusive [activator, single point]",–
CC(C)(C)C(=O)Oc1cc(N)n(S(=O)(=O)c2ccc(F)cc2)n1,"inconclusive [activator, partial curve, poor fit]",–
Cc1cc(C(=O)O)cc(S(=O)(=O)Nc2ccccc2C(=O)NC2CC2)c1C,–,inactive: -0.923%
CO/N=C(/CNC(=O)c1ccc(F)cc1)c1ccc(Cl)cc1,–,inactive: -4.19%
CCOc1ccccc1CN1CCN(Cc2ccc(C)o2)C(CCO)C1 (centres undefined),–,inactive: 8.64%
FC(F)(F)c1cccc(N/N=C/c2ccccc2)c1,"inconclusive [activator, single point]",–
COc1ccc2[nH]c3c(c2c1)CCN1C(=O)C(CC(=O)NC/C=C(\C)CCC=C(C)C)C[C@H](C(=O)N2CCOCC2)[C@@]31CCC1CCCC1 (some centres undefined),–,inactive: -3.27%
COc1ccc(C2c3ccc4ccccc4c3Oc3ncn(Cc4ccco4)c(=N)c32)cc1OC (centres undefined),"inconclusive [activator, single point]",–
Cc1cn([C@H](C(=O)NCCCCCCCCCCC(=O)N2CCN(C(=O)OC(C)(C)C)CC2)[C@@H](C)O)nn1,"inconclusive [activator, partial curve, poor fit]",–

SMILES,Potency,"activity, positive = re-replication"
Cc1cccc(N2CCN(S(=O)(=O)c3ccc(Cl)nc3)CC2C)c1 (centres undefined),–,inactive: 10.9%
CCCCN(CC)CCCNC(=O)C1CCN(c2ncnc3c2sc2cccc(F)c23)CC1,"inconclusive [activator, single point]",–
Nc1nonc1C(=O)NCCNCc1cc(Br)ccc1OCc1ccc(F)cc1,"inconclusive [activator, partial curve, poor fit]",–
COc1ccc(CN2C(=O)c3ccccc3C2=O)cc1C(=O)OCC(=O)NC1CCCCC1,"inconclusive [activator, single point]",–
CC(C)(C)c1cc(C(=O)Nc2ccc(F)cc2)n(Cc2ccc(F)cc2)n1,active: 20.6 µM,–
CN(C)c1ccc(-c2nc3ccccc3c(=O)[nH]2)cc1,–,inactive: 21.9%
Cn1c(N2CCOCC2)c(C#N)c2ccccc21,–,inactive: 10.4%
Cc1cc(=O)[nH]c(SCC(=O)Nc2ccc(Br)cc2)c1C#N,"inconclusive [activator, partial curve, poor fit]",–
Cc1cc(CC(C)C)n(-c2nc3ccccc3c(=O)n2OCC(N)=O)n1,"inconclusive [activator, partial curve]",–
CC1CN(CC(=O)NCc2ccccc2)CC(C)O1 (centres undefined),–,inactive: -1.56%
Cc1ccc(Cl)cc1N1CCN(Cc2nc3c(c(=O)[nH]c(=O)n3C)n2Cc2ccccc2F)CC1,"inconclusive [activator, single point]",–
COc1cccc(OC)c1C(=O)N1CCN(C(=O)c2ccc(-c3ccccc3)cc2)CC1,–,inactive: 15.9%
Cc1cc(C)c2nc(-c3ccccn3)cc(C(=O)NCc3ccc(S(N)(=O)=O)cc3)c2c1,active: 12.6 µM,–
S=c1[nH]nc(C2CCCCC2)n1/N=C/c1cccc(Cl)c1Cl,"inconclusive [activator, single point]",–
CCOc1cc(C(=O)Nc2ccc(N3CCOCC3)cc2)cc(Br)c1OC,"inconclusive [activator, single point]",–
COCCn1c(SCC(=O)c2ccc3c(c2)OCCO3)nnc1-c1ccoc1C,"inconclusive [activator, partial curve, poor fit]",–
Cc1nn(Cc2ccccc2)c(C)c1CNC(=O)CN=C1NS(=O)(=O)c2ccccc21,–,inactive: 6.98%
CCN(CC)CCNC(=O)c1ccc(NC(=O)c2cccc(S(=O)(=O)N(C)C3CCCCC3)c2)cc1,–,inactive: -5.92%
O=c1c2cc3ccccc3n2cnn1Cc1ccccc1F,"inconclusive [activator, single point]",–
CCc1ccc(NC(=O)CSc2nncn2-c2cccnc2)cc1,–,inactive: 4.5%
O=C(Cn1cc(S(=O)(=O)Cc2ccccc2)c2ccccc21)Nc1ccccc1,–,inactive: 22.4%
O=S(=O)(Nc1ccccc1)c1ccc(NS(=O)(=O)c2c(F)cccc2F)cc1,–,inactive: 19.5%
O=C1CSC(=Nc2ccc(Cl)cc2)N1Cc1ccco1,"inconclusive [activator, partial curve, poor fit]",–

SMILES,Potency,"activity, positive = re-replication"
Cc1nn(C)c(Cl)c1/C=N/OC(=O)c1ccc(F)cc1,"inconclusive [activator, single point]",–
CCc1ccc(-c2csc3[n+]2CCN3C(C)=O)cc1,"inconclusive [activator, single point]",–
Cc1ccc2[nH]c(-c3cccc(F)c3)cc(=O)c2c1,active: 1.16 µM,–
CCOc1cc(CNc2ccc(O)cc2)ccc1OCc1ccc(Cl)cc1Cl,"inconclusive [activator, single point]",–
CCNC(=O)c1c(NC(=O)C2COc3ccccc3O2)sc2c1CCCC2 (centres undefined),"inconclusive [activator, partial curve, poor fit]",–
O=S(=O)(N[C@H]1C[C@@H](NS(=O)(=O)OCC(Cl)(Cl)Cl)C2CCCCC21)OCC(Cl)(Cl)Cl (some centres undefined),"inconclusive [activator, full curve, poor fit]",–
COc1ccc(CN(C)Cc2nc(Cc3cccc(F)c3)no2)c2cccnc12,"inconclusive [activator, partial curve, poor fit]",–
Cc1ccc2[nH]c(=O)c(CN(Cc3ccc4c(c3)OCO4)Cc3nnnn3Cc3ccco3)cc2c1,–,inactive: 9.29%
O=C(c1c(F)cccc1F)N1CCCC(c2nc(-c3cccs3)no2)C1 (centres undefined),–,inactive: 21.1%
COc1cc(NC(=O)CCC(=O)OCCCC(F)(F)C(F)(F)F)nc(OC)n1,"inconclusive [activator, single point]",–
O=[N+]([O-])c1ccc(Sc2ccc(Cl)c(Cl)c2)nc1,active: 14.6 µM,–
O=C(NC(Cc1ccccc1)C(=O)O)/C(=C\c1ccc(Cl)cc1)NC(=O)c1ccccc1 (centres undefined),–,inactive: -2.25%
CCOC(=O)CSc1nc2ccc(C)cc2n2cnnc12,"inconclusive [activator, single point]",–
CCOC(=O)COc1cccc2c(=O)n(CC(=O)NCc3ccc4c(c3)OCO4)ccc12,"inconclusive [activator, single point]",–
O=C(c1ccc2ccccc2c1)N1CCN(c2ccc(C(F)(F)F)cn2)CC1,"inconclusive [activator, partial curve, poor fit]",–
O=[N+]([O-])c1cccc(N/N=C/c2cc([N+](=O)[O-])ccc2O)c1,"inconclusive [activator, single point]",–
CCOC(=O)c1ccc(N2C(=O)CC(Nc3ccc(CCO)cc3)C2=O)cc1 (centres undefined),"inconclusive [activator, partial curve, poor fit]",–
C[C@@H]1C(c2cccc(Cl)c2)=NN(c2ccccc2)[C@H]1C(=O)N1CCOC1=O,"inconclusive [activator, partial curve, poor fit]",–
COCC(C)N=CC1=C(O)CC(C)(C)CC1=O (centres undefined),"inconclusive [activator, partial curve, poor fit]",–
CN1CCN(CC(=O)n2c3c(c4ccccc42)CCCC3)CC1,"inconclusive [activator, partial curve, poor fit]",–
CCOC(=O)CSc1nc(Cc2ccccc2)nc2ccccc12,"inconclusive [activator, single point]",–
CC(=O)N(C(C)=O)N1C(=O)c2cccc3c(N4CCOCC4)ccc(c23)C1=O,–,inactive: 1.57%
N#Cc1ccc(OCC(=O)N/N=C2/CC(c3ccccc3)Oc3ccccc32)cc1 (centres undefined),"inconclusive [activator, single point]",–
